Results taken from the supplement of paper PMC4604168 (melanoma cell lines).
The other results are listed elsewhere or left out. Single values are uncertain, as repeats are few or missing.

Legend:
Assay in all cases: cell count relative to DMSO control; melanoma cells; higher = more viable cells
Conditions in all cases: library dose: low library concentration; 72 h
MZ2-MEL = test system: MZ2-MEL
MeWo = test system: MeWo
RPMI7951 = test system: RPMI7951
RVH-421 = test system: RVH-421
SkMel28 = test system: SkMel28
SkMel2 = test system: SkMel2
SkMel30 = test system: SkMel30
SkMel5 = test system: SkMel5
UACC257 = test system: UACC257
UACC62 = test system: UACC62
WM115 = test system: WM115
WM1716 = test system: WM1716
WM1745 = test system: WM1745
WM3526 = test system: WM3526
WM3619 = test system: WM3619
WM451Lu = test system: WM451Lu
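Note: cell number obtained by counting DAPI-stained nuclei in high-throughput microscope images with image analysis software, screen run in 1,536-well plates.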

Row | SMILES | cell count (MZ2-MEL) [%] | cell count (MeWo) [%] | cell count (RPMI7951) [%] | cell count (RVH-421) [%] | cell count (SkMel28) [%] | cell count (SkMel2) [%] | cell count (SkMel30) [%] | cell count (SkMel5) [%] | cell count (UACC257) [%] | cell count (UACC62) [%] | cell count (WM115) [%] | cell count (WM1716) [%] | cell count (WM1745) [%] | cell count (WM3526) [%] | cell count (WM3619) [%] | cell count (WM451Lu) [%]
1 | NC(=O)c1ccc(N(C(N)=O)c2c(F)cccc2F)nc1-c1ccc(F)cc1F + COC(=O)c1sccc1S(=O)(=O)Nc1ccc(Nc2ccccc2)cc1OC [GSK0660] (first compound 0.4 µM, partner dose 1 µM) | 92.1 | 99.1 | 103 | 96.7 | 103 | 99.7 | 116 | 101 | 86.8 | 84 | 99.5 | 115 | 93.9 | 90.2 | 115 | 91.1
2 | NC(=O)c1ccc(N(C(N)=O)c2c(F)cccc2F)nc1-c1ccc(F)cc1F + O=S(=O)(c1ccccc1)N(CC(F)(F)F)c1ccc(C(O)(C(F)(F)F)C(F)(F)F)cc1 [T0901317] (first compound 0.4 µM, partner dose 1.4 µM) | 100 | 86.3 | 82.3 | 101 | 76.1 | 106 | 122 | 87.9 | 104 | 83.7 | 89.6 | 95.8 | 77.8 | 80.5 | 104 | 100
3 | CCCCCCCCc1ccc(CCC(N)(CO)CO)cc1 [fingolimod] + OCCn1cc(-c2cnc3nnn(Cc4ccc5ncccc5c4)c3n2)cn1 [PF04217903] (first compound 2 µM, partner dose 1 µM) | 86.5 | 97.5 | 94.8 | 113 | 94.8 | 94.1 | 93.7 | 79.7 | 80.4 | 85.8 | 97.7 | 79.3 | 70.2 | 101 | 90.2 | 124
4 | NC(=O)c1ccc(N(C(N)=O)c2c(F)cccc2F)nc1-c1ccc(F)cc1F + COc1ccc(-c2ccc3c(N4CCOCC4)nc(N4C[C@@H](C)O[C@@H](C)C4)nc3n2)cc1CO [KU0063794] (first compound 0.4 µM, partner dose 0.02 µM) | 90.9 | 86.5 | 89.2 | 115 | 90.5 | 108 | 92.1 | 95.5 | 87.1 | 89.2 | 100 | 102 | 88.8 | 138 | 94.6 | 103
5 | Cc1ccc(NC(=O)c2cccc(N(C)C)c2)cc1NC(=O)c1ccc(O)cc1 + O=C(O)c1ccc(-c2c[nH]c3ncc(-c4ccccc4)cc23)cc1C1CCCC1 [GSK650394] (first compound 2 µM, partner dose 0.16 µM) | 74.4 | 90.5 | 101 | 98.5 | 88 | 96.4 | 91.1 | 104 | 59.9 | 77.4 | 111 | 93.8 | 96.5 | 94.2 | 86.7 | 93.4
6 | NC(=O)c1ccc(N(C(N)=O)c2c(F)cccc2F)nc1-c1ccc(F)cc1F + Cn1cncc1[C@@](N)(c1ccc(Cl)cc1)c1ccc2c(c1)c(-c1cccc(Cl)c1)cc(=O)n2C [tipifarnib] (first compound 0.4 µM, partner dose 0.01 µM) | 103 | 93.2 | 98.2 | 99.1 | 81 | 89.2 | 81.7 | 105 | 68.3 | 73.3 | 76.7 | 83.5 | 90.5 | 85.7 | 93.6 | 91.9
7 | NC(=O)c1ccc(N(C(N)=O)c2c(F)cccc2F)nc1-c1ccc(F)cc1F + O=C(O)c1ccc(-c2c[nH]c3ncc(-c4ccccc4)cc23)cc1C1CCCC1 [GSK650394] (first compound 0.4 µM, partner dose 0.16 µM) | 92.3 | 93.4 | 96.3 | 77.9 | 88.3 | 101 | 99.5 | 93.5 | 84.2 | 101 | 102 | 107 | 101 | 88.1 | 99.6 | 95.8
8 | CCCCCCCCc1ccc(CCC(N)(CO)CO)cc1 [fingolimod] + Cn1cncc1[C@@](N)(c1ccc(Cl)cc1)c1ccc2c(c1)c(-c1cccc(Cl)c1)cc(=O)n2C [tipifarnib] (first compound 2 µM, partner dose 0.01 µM) | 101 | 95.9 | 74.2 | 99.5 | 90.1 | 70.5 | 89.8 | 101 | 78.1 | 79.3 | 90.9 | 67.1 | 102 | 81.1 | 99.8 | 84.8
9 | CCCCCCCCc1ccc(CCC(N)(CO)CO)cc1 [fingolimod] + O=C1NC(=O)/C(=C/c2ccc(-c3ccc(F)cc3O)o2)S1 [AS252424] (first compound 2 µM, partner dose 1 µM) | 96.8 | 97 | 83.8 | 83.8 | 75.3 | 87.1 | 90.2 | 95 | 78.7 | 89.6 | 83.8 | 91.3 | 65.4 | 84.2 | 89.7 | 104
10 | CCCCCCCCc1ccc(CCC(N)(CO)CO)cc1 [fingolimod] + C[C@@H]1CCN(C(=O)CC#N)C[C@@H]1N(C)c1ncnc2[nH]ccc12 [CP690550] (first compound 2 µM, partner dose 1 µM) | 113 | 96.1 | 79.7 | 79.9 | 76.6 | 98.4 | 95.3 | 95.4 | 82.5 | 84.1 | 90.8 | 74.9 | 78.6 | 85 | 111 | 96.3
11 | NC(=O)c1ccc(N(C(N)=O)c2c(F)cccc2F)nc1-c1ccc(F)cc1F + O=C(Nc1ccccc1)c1cc([N+](=O)[O-])ccc1Cl [GW9662] (first compound 0.4 µM, partner dose 2 µM) | 93.2 | 85.3 | 94 | 110 | 91.1 | 88.4 | 80.6 | 76.2 | 82.9 | 76 | 94.2 | 108 | 76.9 | 71.7 | 72.6 | 88.6
12 | CC(C)(C)c1cnc(CSc2cnc(NC(=O)C3CCNCC3)s2)o1 + C[C@@H]1CCN(C(=O)CC#N)C[C@@H]1N(C)c1ncnc2[nH]ccc12 [CP690550] (first compound 0.01 µM, partner dose 1 µM) | 105 | 106 | 103 | 95.7 | 91.3 | 107 | 93.9 | 104 | 82.6 | 83.9 | 98 | 93.2 | 94.5 | 97.4 | 93 | 80.3
13 | CCCCCCCCc1ccc(CCC(N)(CO)CO)cc1 [fingolimod] + O=C(Nc1ccccc1)c1cc([N+](=O)[O-])ccc1Cl [GW9662] (first compound 2 µM, partner dose 2 µM) | 94.3 | 91.3 | 107 | 83.3 | 64.2 | 99.6 | 110 | 103 | 121 | 66.5 | 98.3 | 72.1 | 69.3 | 68.8 | 80.8 | 102
14 | CCCCCCCCc1ccc(CCC(N)(CO)CO)cc1 [fingolimod] + c1cc(-c2cnn3cc(-c4ccc(OCCN5CCCCC5)cc4)cnc23)ccn1 [Dorsomorphin] (first compound 2 µM, partner dose 0.4 µM) | 103 | 84.7 | 84.6 | 84.7 | 95.1 | 87.2 | 91 | 88.5 | 84.1 | 79.9 | 100 | 88.9 | 85.8 | 95.4 | 95.5 | 93.8
15 | CCCCCCCCc1ccc(CCC(N)(CO)CO)cc1 [fingolimod] + O=C(Nc1cccc(Cl)c1)Nc1ncc(CCNc2ncnc3ccsc23)s1 [SNS314] (first compound 2 µM, partner dose 0.0008 µM) | 103 | 105 | 88.5 | 122 | 104 | 105 | 117 | 96.2 | 118 | 86.3 | 76.4 | 88.1 | 68.6 | 95.1 | 86.8 | 88.6
16 | Cc1ccc(NC(=O)c2cccc(N(C)C)c2)cc1NC(=O)c1ccc(O)cc1 + NC(=O)Nc1cc(-c2cccc(F)c2)sc1C(=O)N[C@H]1CCCNC1 [AZD7762] (first compound 2 µM, partner dose 0.02 µM) | 80.8 | 107 | 73.1 | 118 | 91.4 | 107 | 104 | 123 | 128 | 99.6 | 85.1 | 84.7 | 81.7 | 70.2 | 58.2 | 132
17 | NC(=O)c1ccc(N(C(N)=O)c2c(F)cccc2F)nc1-c1ccc(F)cc1F + Cn1cc(/C=C2\C(=O)Nc3cccnc32)c2ccccc21 [GW441756] (first compound 0.4 µM, partner dose 0.4 µM) | 99.9 | 115 | 94.4 | 89.8 | 76 | 102 | 102 | 87.3 | 84.5 | 97.7 | 92.3 | 110 | 91.9 | 105 | 103 | 109
18 | NC(=O)c1ccc(N(C(N)=O)c2c(F)cccc2F)nc1-c1ccc(F)cc1F + NC(=O)Nc1cc(-c2cccc(F)c2)sc1C(=O)N[C@H]1CCCNC1 [AZD7762] (first compound 0.4 µM, partner dose 0.02 µM) | 113 | 98.3 | 86.5 | 141 | 91.1 | 111 | 102 | 99.8 | 124 | 92.9 | 88 | 94.1 | 76.2 | 74 | 55.4 | 62.9
19 | NC(=O)c1ccc(N(C(N)=O)c2c(F)cccc2F)nc1-c1ccc(F)cc1F + CO[C@@H]1[C@H](N(C)C(=O)c2ccccc2)C[C@H]2O[C@]1(C)n1c3ccccc3c3c4c(c5c6ccccc6n2c5c31)C(=O)NC4 [Midostaurin] (first compound 0.4 µM, partner dose 0.08 µM) | 92.3 | 83.5 | 83.2 | 6.41 | 92.9 | 91.1 | 121 | 84.3 | 65.5 | 94.9 | 82.8 | 78.8 | 90.2 | 94.3 | 108 | 108
